Measurements reported in the supplement of paper PMC11417369.
The list shows a part of the results.

tested on: PF3D7_0420300 AP2 domain 1 (GST-tagged); assay: gcPBM binding intensity (ln(normalized median fluorescence intensity)); higher = stronger DNA binding
Method in brief: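 An Agilent 4 × 180k array carrying primer-extended double-stranded 36-bp intergenic genomic probes and negative controls received GST-tagged P. falciparum DNA-binding domains expressed in E. coli, about 25 μg on average, for 1 h. The binding buffer contained 1× PBS, 1% milk, 0.2 mg/ml BSA, 0.5% salmon testes DNA and 0.03% Triton X-100. Binding intensity is the top Masliner-normalised natural-log median intensity across replicate spots of either probe orientation, read after Alexa488 anti-GST antibody staining and a 488 nm scan.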

Sequence	gcPBM binding intensity (ln)
TGTGTATAAATATACACACACATATAAATATTTTAA [CACACA_site7005]	9.42
TATTTAAAAAATAATACACACATAATATAACAAAAT [CACACA_site3174]	9.94
ACATATAATATAAATTGTACATATAAATATATTATT [XGTACX_site4268]	9.24
AAAAGTCTTCAAATTTGTACATATATATATATATAT [XGTACX_site3404]	9.13
GGTACATACAGACACACACACAAAAAAAAAAAAATA [CACACA_site6844]	9.88
TTAATATTAATTATATGTACATATAATATATATATA [XGTACX_site1757]	9.04
ATCTTTTCATATTGCTGTACAAATTATTTTCATTCG [XGTACX_site492]	9.57
TGTATAAAATTCCATTGTACATATTATTTTACGACA [XGTACX_site7764]	9.11
GAGAAATGGAGACACACACACATATTATATATATAT [CACACA_site1532]	9.89
ATGTTAAACAAATCTATACACACGTATATGACAAAA [CACACA_site1783]	9.36
ATTTTGGAAATAATATGTACATATACATAATATATA [XGTACX_site4177]	9.13
CGAACACAAACACAAACACACATCATATATATATAT [CACACA_site4857]	9.53
AATATACAAAAAAAAAAAAAAAAAAAAAAGATGGAA [TGCATGCA_negctrl_site550]	9.28
AGCAAAATGAAATAAATTGGAAAATATTACTGAACG [CACACA_negctrl_site1433]	9.39
GCAAATCTTATATGAAGTACATATCTTATAAATAAA [XGTACX_site6903]	8.96
TTTATTATATTTTTTTGTACATATTGATGTATATAA [XGTACX_site6527]	9.19
TGAATTTACAAAATCATGCACTTAATTACAGAATAA	9.13
ATAAAAAAAAAAAGAAGTACATGTATTAAAATTTAT [XGTACX_site3927]	9.5
AACAAAGGATTTATATATACATACATACATACATAA [GTGCAC_negctrl_site469]	9.37
ATATATAATTTTTACACACGCAATAAATATATATAT [CACACA_site4283]	9.47
TTTTGGATTGAGGACCTTTTTATAGAATTATGTTTT [TGCATGCA_negctrl_site544]	9.13
TATATATAATATATATGTACGTATATATATAATATA [XGTACX_site8383]	9.14

Sequence	gcPBM binding intensity (ln)
TTAACATAAATATATACACACCAATGATGGCATTTA [CACACA_site4952]	9.31
GTTTCCTTAATATTCACACACATATATATAATATAT [CACACA_site1856]	9.78
ATGTTATAAGATTTATGTACACACATATACACACCT [XGTACX_site1316]	9.75
TTTATTTTCCAAAGGGTGCACATAGTTGAAACGATA	9.2
AATAAAGCAATAAATACACACATATTTATATTTATA [CACACA_site7390]	9.56
TTTTCATAATATACATGTACATATATAAATTATTAA [XGTACX_site5206]	8.98
GTATACATGCAAATTTTTATTTACAACCCCAAAAAG [XGTACX_negctrl_site255]	9.23
TATTATAATATGCCTTGTACATATAACAAATTTATT [XGTACX_site108]	9.05
TTTTTTTCACAAAATACACACAATATATTTTATATC [CACACA_site1138]	9.25
TTTATTTATTACTAAAGTACTAAATCATATTATTAT [XGTACX_site2574]	8.83
ATGAACAAGTGGCACACACACATTATAACTAATTTA [CACACA_site5731]	9.76
AAAATAATATTTCCTTGTACACATATGTATTTGTTC [XGTACX_site4430]	9.45
TTCTTTTTTTTTATCACACATATTACAATCTAGTGC [CACACA_site4697]	9.23
GAGAGGAACATTATATGTACATATTAATTCTAAAAT [XGTACX_site5433]	9.06
ACAAATAAGTTTTATACACACATATAAGTAAATACA [CACACA_site4157]	9.58
ACAATATTTTTTTATAAACACACATATATATAAATA [CACACA_site9175]	9.35
TATAGTGATATATACACACACTTGTCTTGTAAAAAT [CACACA_site6594]	9.53
TGTATAAAAATTTATACACACATTTTATATATTTCA [CACACA_site1015]	9.32
TAATCCATAAGAAGCACACACATATATATATATTTT [CACACA_site1399]	9.62
TATTAATTATTATGACATACATATCAGTTATTAAAA [CACACA_negctrl_site600]	8.98
TAATGGAGAAAAAAAAAACACACGGTACATTCAAAG [CACACA_site3117]	9.8
AAGGGAAAATAATAAAAGAAAAAGAAAAAAAAAAAA [CACACA_negctrl_site1518]	9.21

Sequence	gcPBM binding intensity (ln)
TATATATATATATATTGTACTTTATATGTTCTTATA [XGTACX_site7545]	9.41
TTTTATAAAGGAAAAGCATGCAGACTAAAAGATCAT [TGCATGCA_site150]	9.28
AAATATTACATTTGTTAAATAATATGTTATACATAA [XGTACX_negctrl_site484]	8.95
ACATTAAAAAATTGTTTGCACTATATAAAATATTAA [GTGCAC_site9728]	8.99
AATATAAGAAAAATAACACACACATAAACATATATA [CACACA_site8899]	10.1
TTTCTTTTCTTCTCTATTTTTTTTTCACGGCATTAT [TGCATGCA_negctrl_site484]	9.28
ATTCATATGAAACACACACACACACCCATAAAAAAA [CACACA_site3246]	10.1
TCTTTTCAATTTTATATGATCTTAATATTTTATGAA [GTGCAC_negctrl_site294]	8.93
ATTTTTTACATACTCAAATGTTTTAATTTTTTATAT [CACACA_negctrl_site1213]	9.38
TTTTTTTTTTTTTACACACACAAAATATTATAGGTA [CACACA_site7209]	9.58
ATATATATATATATAGTGCACATTTATATAATTATT	9.34
AAATGTGAACTATAATAATTTCAACGTCTGATATAA [TGCATGCA_negctrl_site440]	9.15
AAATTTATAAAGAACACACACATATATATATATATA [CACACA_site48]	9.83
CAAAACCTAATATGTACACACATATACATCACACTT [CACACA_site7480]	9.72
TTTCTTTCGAATGCTTCACACATTACTCTTAAATAG [CACACA_site5265]	9.26
ATTTTGTTATTATATATATATATATATATATATATA [XGTACX_negctrl_site590]	9.07
ATTTTAAATTAAATTACACACTACGAATAATATATT [CACACA_site4016]	9.35
ATATTTCTGTCAAGCACACATAATATTAATATATGT [CACACA_site318]	9.24
AATAAATTATATATCACACATATATATTTATATTTA [CACACA_site5964]	9.12
ACATATAAAATATTCACACACAAGTTATAGTTCTCG [CACACA_site3626]	9.76
ATTTCCCCAACGTGGGTGCATATATTTATGTGTGAA [GTGCAC_site9439]	9.27
ATTATGTGAGGTAACTAAATATGTACGTAACGAAGA [CACACA_negctrl_site1400]	9.48

Sequence	gcPBM binding intensity (ln)
ATTATATTTTTAAGTACACACATATAAATAAATATA [CACACA_site7682]	9.23
TATTAATTATTTTACTGTACTAATAATACTTTTATT [XGTACX_site2179]	9.27
TAATGTATAATTAATCGTACATTAGATTGTTGTGTT [XGTACX_site52]	9.31
ATATATATATATGTGTGTACTTAAAAATATAATGCA [XGTACX_site7753]	9.59
ATATATATATATTATACACACGCCGAAAAAATAAAA [CACACA_site1551]	9.53
TTACGAAAAAACAAGAGTACATGATGTTATAAAATA [XGTACX_site1412]	9.36
TTTATTTTATCTAAAAGTACTTAAATTAGTGTATTT [XGTACX_site5696]	9.04
CGTTGTAGGGAATGTAGTACAGTTATTATTTTATTA [XGTACX_site2429]	9.42
TCATACATTTTCAGCCTGCACTTATATTTAATAATA [GTGCAC_site9863]	9.31
TATATATATAAATACACACACACACCGATATATATA [CACACA_site5408]	10.1
AAAAAAAAAAAACACACACACACACCGAAATATATA [CACACA_site4261]	10.2
TTCAGCATAAACACTTGTACATATATACTAAAAATT [XGTACX_site7272]	9.17
AATTTTTTTTTTTTTTTTTCTTTTGTAATAAACCAT [XGTACX_negctrl_site334]	9.15
TAAGGAAAAAATTATAGTACATAATAAATGTATATA [XGTACX_site8328]	9.14
ATAAATATATTTCACGCACACACACCCCAAATAAAT [CACACA_site9272]	9.99
CAAATTTTTTATTAAACACACAAACATATATTTATA [CACACA_site6992]	9.12
AAAAAAGAAAAGAAATCATGAAAGAATCAAATAAAG [CACACA_negctrl_site1771]	9.36
TTTTTATATATATTCTCACACACTTTTTATTTTAAC [CACACA_site657]	9.65
TATTAACAAAATTTTTAACACACAAAAAAAAAAAAA [CACACA_site8542]	9.29
TTTTTTGTTATATTTGTGCGCAAAAATTGCTGCTTG	9.01
CATAATATATTTTATGCATGCAAAGCAACCTTTTGA [TGCATGCA_site715]	9.01
AAAATTTATGTAAAATGTACATACATAAATAAAGAT [XGTACX_site4339]	9.36
